In the RNAGym collection of RNA variant scans (doi:10.7554/elife.90254) one finds self-cleavage data, which are given here for 167 variants.

The source gives no read counts; variants with many changes may rest on few reads.

B1: LINE1-mini (parent)
chain: GGCAGAGCUCAACACAGCGUGGCAAAGUGGCUGUGGCUAGACUGCC

This data set covers variants of B1. The experiment in a line: self-cleavage, relative activity (ratio to wild type); higher = more cleavage; in vitro, sequencing; the parent is a self-cleaving ribozyme.
For G1U G2U A6C G7C C18A U28C C42U, the self-cleavage is 0.
As to G1U G2C C8G C13A G17C G21A A25U, the self-cleavage is 0.04.
On to G2A A4C A14G, for which the self-cleavage turned out to be 0.25.
Regarding G1U A26C G27A C31A A41U, the self-cleavage was 0.06.
Next, G1U C3G U9C A39U C45A: 0.01; G1C U9C A24U U32C A41G: 0.01; G1U G2C G7A C18G G19C A26C C42U U43C: 0.14.
With G1U A4C C10G A39C the figure was 0.03; with G1U C8G C10A U28A, 0.01.
Next, G1U A26G U28G G36A: 0.07.
With G1C G19U U32C C37G, the self-cleavage was 0.01.
G1U C15A G27C G40A: the self-cleavage was 0.01.
Next, G1U A16U G21A G29C G36C U38A: 0.05; G1U G29U G30A: 0.06.
For the variant G1U C23U A41U, the self-cleavage came out at 0.82.
Consider G1C G30U C31U A39U, for which the self-cleavage came to 0.
On to G1U C3U C8G A24G, for which the self-cleavage is 0.04.
With G1U G17U G22U G29A C46U the figure was 0.09; with G1U A14U G17A C46U, 0.04; with G1U G2U C8G C10U U28G G29U U38C U43C, 0.
For the variant G1C U38G G40C C46U, the self-cleavage is 0.
For G1U G2U A14C U34C, the self-cleavage came out at 0.01.
For G1U A4G C15G G27U A39U C46U, the self-cleavage was determined as 0.02.
For G1U A12U A26C C46A, the self-cleavage came out at 0.18.
Next, G1U G5C C15U G22U C46U: 0.01; G1U G2A A14U A39U: 0.07; G1U A14U G29U G30A: 0.06.
Turning to G1U A11C C46A, the self-cleavage was 0.
G1C U34G G44C: the self-cleavage was found to be 0.02.
Take G1U C23A U38A: the self-cleavage is 0.06.
For the variant G1U G2U C3G A4U A14C G19A U34G, the self-cleavage came to 0.08.
With G1U G30U C31U C46A the figure was 0.04; with G1U U9G U20G C42A, 0.03; with G1C G7A G40U, 0.06.
Take G1U A6G G19C G21C G29A C46U: the self-cleavage stood at 0.02.
Take G1U G21C G29C C42A: the self-cleavage amounted to 0.03.
Next, G1U C18A G21C: 0.04; G1U A14C G19U: 0.02; G1C G35C A39C C46A: 0.01.
For G1U G17C G33U, the self-cleavage is 0.03.
Next, G1U C3A C23A: 0.8; G1U C10U G33U G36U A39U: 0.02.
Take G1U C18U G22U A26G: the self-cleavage is 0.34.
Next, G1U A11C U32A: 0.01; G1C G21C C45A: 0.05.
Consider G1U G2U C10U G30U G40U, for which the self-cleavage stood at 0.01.
G1U C15U G30U: the self-cleavage was 0.05.
Next, G1C U20G G27C: 0.04.
For G1U G7A G22U C31U, the self-cleavage is 0.09.
Turning to G1C U9G U20G, the self-cleavage turned out to be 0.02.
G1U G2U C8A A12G U34A: the self-cleavage stood at 0.
Next, G1U G22A A24G U28G: 0.5.
As to G1U G22C A25U G29U G36C, the self-cleavage is 0.13.
With G1U U20G G21C G29C C42A C45G, the self-cleavage turned out to be 0.09.
As to G1U G2C A16G G17U C23G G44A, the self-cleavage is 0.01.
Turning to G1U C8A A14U G22A A26U U38A G44A C46A, the self-cleavage turned out to be 0.04.
G1U G7C A14C G21U: the self-cleavage came out at 0.05.
On to G1U A4G G21C G22U G40U C46G, for which the self-cleavage worked out at 0.04.
Next, G1U A6G C37G U43C: 0.01; G1U C15A C23A C37A: 0.06; G1U A12G G29U C31A: 0.02.
With G1U C10A G22U the figure was 0.06; with G1U G2U C15A, 0.01; with G1U U20G G36A, 0.06.
With G1U G21U C23A U28G G30A the figure was 0.3; with G1C G7A U9G A14G, 0.02; with G1U A16G C18G, 0.11.
G1U C3G G17U G40A: the self-cleavage stood at 0.04.
On to G1U G5A U20G, for which the self-cleavage is 0.03.
As for G1C G27U C31A, the self-cleavage came out at 0.08.
In the case of G1U C10U C15U G40A C42A, the self-cleavage came to 0.01.
In the case of G1U C8A A24G, the self-cleavage came out at 0.17.
Turning to G1U G21U C31U, the self-cleavage amounted to 0.1.
Next, G1U G21C U28C C45A: 0.29; G1U C10A G22C C42G: 0; G1U A6G C15U U34G: 0.08.
Next, G1U C8U G40U: 0.04; G1U C15U G21C C23U C46A: 0.6.
As for G2A A4C C23U, the self-cleavage turned out to be 0.26.
Take G1U C8G C18A G30C G35U G36C C46G: the self-cleavage came to 0.01.
With G1U G2C A12G A16C C18A G30A G35U the figure was 0.02; with G1U A6G G19A U43A C45U, 0.04.
Next, G1U C3U G17U: 0.08.
Turning to G1C U20A A26G G30C A39U, the self-cleavage came out at 0.11.
Next, G1U C10G C15U A16C A24U G30U C37G A39G: 0.02; G1U A6G C31A G36C C37A: 0.01.
Take G1U A26U A39U: the self-cleavage came to 0.15.
With G1U U32C C45U the figure was 0.01.
For the variant G1C G17A C31U G36U, the self-cleavage came to 0.01.
As for G1U G2C G17U G21C U32C C45A, the self-cleavage came out at 0.01.
With G1U G7C A14C A16C G19U G22A C45G the figure was 0.05; with G1U G5U A6C G7U C10A U34G, 0.02; with G1U A6C A14U G17A U38A, 0.11.
With G1U A16G A25G U43A, the self-cleavage came to 0.01.
Next, G1U C13U G29A G36U: 0.04.
Take G1U A14G U20G A24C: the self-cleavage is 0.05.
Next, G1U C18U G22A A41C C46A: 0.03.
Next, G1U U28G G33C: 0.01.
Next, G1U C8G C13U U38C: 0.02; G1C U28A C45U: 0.19; G1U C37U A39G C46A: 0.02.
As for G1U G19U C31A G33U A41U, the self-cleavage came out at 0.03.
Turning to G1C G7A C42G C45G, the self-cleavage came to 0.
In the case of G2A A4C A14G A16U G19U U43A, the self-cleavage stood at 0.09.
For G1U G5C A6C G19A G27C C31U G44A, the self-cleavage was 0.13.
With G1U C3U U9A A26U G27U G29A the figure was 0.24.
Next, G1U A25U U34A: 0.03.
As to G1U U20A G30U, the self-cleavage amounted to 0.93.
In the case of G1U C10A G35U, the self-cleavage worked out at 0.
With G2A A4G A16G G30U A41G the figure was 0.04; with G1U C13U A25C G27A, 0.02; with G1U G5C G21C G27U, 0.02.
With G1U C3G C45U the figure was 0.06; with G1U A11G A12C U32A C42A U43C, 0.
With G1C G5U G19U C46U the figure was 0.04.
In the case of G1C U28C G35A A41G, the self-cleavage turned out to be 0.01.
Next, G1U A16G C31U: 0.06; G1U A16G C31G: 0.02.
In the case of G1U G27C G29C G35U, the self-cleavage worked out at 0.
Consider G1U G5U A16G C23U C31G U38A, for which the self-cleavage stood at 0.01.
Next, G1U A6G C8U U32G C37U: 0.05; G1U A12C G33C U34G: 0.01.
Next, G1U U20C C37U: 0; G1U G27U G40U: 0.04.
With G1U G17U G19A G21U the figure was 0.53; with G1U C3A A16U U20G U34A, 0.14.
Turning to G1U A25U G35U, the self-cleavage is 0.07.
On to G1U G36A A41G, for which the self-cleavage was 0.07.
With G1U G29U A41U the figure was 0.2.
As for G1U G27C A41U, the self-cleavage is 0.23.
Regarding G1U C8A C37U, the self-cleavage was 0.02.
Next, G1U C3A U9A: 0.43; G1U C3A U34G: 0.19.
In the case of G1U A14U A24U G44A C45G, the self-cleavage is 0.04.
Next, G1U A6G C10U U38A: 0.01; G1U G2C G21U U32C G33U U38C: 0.
As to G1U A16G U20G, the self-cleavage is 0.
Next, G1C G27U C31U G44U: 0.04; G1U A11C C13G C31U G40C C45U: 0.01.
Next, G1C U20A A26U: 0.09.
Take G1U C10A C15A C18G: the self-cleavage amounted to 0.
As for G1U C8G U43C C45U, the self-cleavage was found to be 0.
On to G1U A12G C31A G40U, for which the self-cleavage was 0.
As for G1U C10A G21U G22U A25C U38A, the self-cleavage came out at 0.04.
In the case of G2A A4C C8U C13A G17A C18U, the self-cleavage was found to be 0.15.
For the variant G1U U9G U20C A25U, the self-cleavage stood at 0.01.
G1U A6G C18A C31U: the self-cleavage turned out to be 0.02.
With G1U A25C C31G C42U the figure was 0.02; with G1U A25C G27U G35U, 0.03; with G1U A14C C31A, 0.01.
As for G1U A11G G21C A39C, the self-cleavage was determined as 0.01.
With G1U G5A A12U the figure was 0.41; with G1U A6C A11G A25G U28A G40C, 0.01.
Next, G1C G22A G30U: 0.2; G1U A11G C13G C18G: 0.01.
Consider G1U C23U A25U G40C, for which the self-cleavage was 0.05.
Consider G1C U9A A24U G30A A41C, for which the self-cleavage is 0.02.
With G1U A14C A25G G29C C31U G35C the figure was 0.02; with G1C G30U A39G C42G, 0.01; with G1U U28C G36U C45G, 0.08.
Next, G1U C3U A4C A11U G21C A24G: 0.02.
Next, G1C U34A G35U A41G: 0.02; G1C G7A U9G C13U A25C A26U: 0.01.
Regarding G1C G30U G35U, the self-cleavage was determined as 0.02.
Next, G1U G5A C8A C42A: 0.16; G1U G30U G33C: 0.02; G1U C10G G21U A25C: 0.03.
